{"source": "a collection of fitness landscapes (doi:10.1038/s41467-024-54723-y)", "note": "Whole data set: some 18,000 sequences, median “TetR repression strength (sort-seq, GFP reporter)” near 0.23, cut for the highest 2% near 0.68. The list shows a part of the results.", "data": [{"biological_target": "TetR (class B, Tn10) (UniProt P04483)", "sequence (P04483 whole entry)": "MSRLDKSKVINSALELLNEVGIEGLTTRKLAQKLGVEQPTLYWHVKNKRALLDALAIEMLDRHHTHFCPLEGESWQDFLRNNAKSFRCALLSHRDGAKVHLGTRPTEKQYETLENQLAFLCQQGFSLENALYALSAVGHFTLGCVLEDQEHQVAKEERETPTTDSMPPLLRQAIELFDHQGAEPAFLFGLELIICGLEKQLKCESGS", "experiment": "TetR repression strength (sort-seq, GFP reporter) (relative to tetO2 = 1); higher = stronger repression", "settings": "E. coli", "how_it_was_run": "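Escherichia coli SIG10-MAX cells carried a low-copy plasmid library in which eight operator positions were randomized between a constitutive promoter and sfGFP, and TetR was expressed constitutively. After 5 h of growth at 37 °C in LB with 50 µg/mL chloramphenicol, 10^6 cells were FACS-sorted into 13 fluorescence bins, and each bin was Illumina-sequenced. Repression strength was the top bin index plus one minus the read-weighted mean bin, divided by the value for the unaltered operator. Across three independent transformations, only library members with ≥30 reads in every replicate and a CV ≤0.5 were averaged.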", "values": [{"sequence": "TCCCTGCTAGTTACCGAGA", "TetR repression strength": 0.361}, {"sequence": "TCCCGAACAGTGCCTGAGA", "TetR repression strength": 0.28}, {"sequence": "TCCCTAATAGTGAAGGAGA", "TetR repression strength": 0.101}, {"sequence": "TCCCTACAAGTAGTGGAGA", "TetR repression strength": 0.303}, {"sequence": "TCCCGAGTAGTTTGTGAGA", "TetR repression strength": 0.152}, {"sequence": "TCCCCACTAGTCCAGGAGA", "TetR repression strength": 0.134}, {"sequence": "TCCCGCAGAGTGCAGGAGA", "TetR repression strength": 0.195}, {"sequence": "TCCCTTTCAGTTAAGGAGA", "TetR repression strength": 0.196}, {"sequence": "TCCCAGAGAGTGGTAGAGA", "TetR repression strength": 0.292}, {"sequence": "TCCCGTTCAGTGGTTGAGA", "TetR repression strength": 0.416}, {"sequence": "TCCCGTCGAGTTTGTGAGA", "TetR repression strength": 0.772}, {"sequence": "TCCCTGGGAGTGCAAGAGA", "TetR repression strength": 0.347}, {"sequence": "TCCCGAATAGTTGGGGAGA", "TetR repression strength": 0.152}, {"sequence": "TCCCCCGAAGTACCAGAGA", "TetR repression strength": 0.207}, {"sequence": "TCCCCCCTAGTTACAGAGA", "TetR repression strength": 0.409}, {"sequence": "TCCCACCGAGTGGCAGAGA", "TetR repression strength": 0.498}, {"sequence": "TCCCGAAAAGTTGGCGAGA", "TetR repression strength": 0.433}, {"sequence": "TCCCAAATAGTCAGTGAGA", "TetR repression strength": 0.38}, {"sequence": "TCCCTGGGAGTGTGAGAGA", "TetR repression strength": 0.18}, {"sequence": "TCCCCCGCAGTATTTGAGA", "TetR repression strength": 0.298}, {"sequence": "TCCCGTATAGTTAATGAGA", "TetR repression strength": 0.0736}, {"sequence": "TCCCTAGGAGTGGCTGAGA", "TetR repression strength": 0.676}, {"sequence": "TCCCAGTGAGTGTAGGAGA", "TetR repression strength": 0.318}, {"sequence": "TCCCGTCCAGTCGCCGAGA", "TetR repression strength": 0.232}, {"sequence": "TCCCACACAGTGGCAGAGA", "TetR repression strength": 0.173}, {"sequence": "TCCCTGATAGTAGAGGAGA", "TetR repression strength": 0.384}, {"sequence": "TCCCGTCGAGTGGGGGAGA", "TetR repression strength": 0.183}, {"sequence": "TCCCAGTCAGTCCATGAGA", "TetR repression strength": 0.057}, {"sequence": "TCCCACTCAGTCAAGGAGA", "TetR repression strength": 0.439}, {"sequence": "TCCCGTTTAGTTTAAGAGA", "TetR repression strength": 0.419}, {"sequence": "TCCCTTGCAGTCCGGGAGA", "TetR repression strength": 0.0195}, {"sequence": "TCCCGAGTAGTTTTTGAGA", "TetR repression strength": 0.159}, {"sequence": "TCCCTTAAAGTGGGGGAGA", "TetR repression strength": 0.245}, {"sequence": "TCCCGTTCAGTATACGAGA", "TetR repression strength": 0.165}, {"sequence": "TCCCAAGCAGTTAACGAGA", "TetR repression strength": 0.284}, {"sequence": "TCCCTTCGAGTTACAGAGA", "TetR repression strength": 0.43}, {"sequence": "TCCCTGGAAGTAGGGGAGA", "TetR repression strength": 0.303}, {"sequence": "TCCCGGTCAGTGTCAGAGA", "TetR repression strength": 0.332}, {"sequence": "TCCCAGGTAGTGATAGAGA", "TetR repression strength": 0.622}, {"sequence": "TCCCATTCAGTGCATGAGA", "TetR repression strength": 0.501}, {"sequence": "TCCCAGCAAGTAGACGAGA", "TetR repression strength": 0.0773}, {"sequence": "TCCCATATAGTTTGTGAGA", "TetR repression strength": 0.109}, {"sequence": "TCCCCGCGAGTATGGGAGA", "TetR repression strength": 0.239}, {"sequence": "TCCCGCCGAGTGTGCGAGA", "TetR repression strength": 0.147}, {"sequence": "TCCCACAAAGTGTGAGAGA", "TetR repression strength": 0.17}, {"sequence": "TCCCATCTAGTGGCTGAGA", "TetR repression strength": 0.341}, {"sequence": "TCCCTTTCAGTGGGGGAGA", "TetR repression strength": 0.197}, {"sequence": "TCCCACTGAGTTAGGGAGA", "TetR repression strength": 0.271}, {"sequence": "TCCCGTGCAGTCACGGAGA", "TetR repression strength": 0.161}, {"sequence": "TCCCGGCTAGTGGGAGAGA", "TetR repression strength": 0.324}, {"sequence": "TCCCATCCAGTTAGAGAGA", "TetR repression strength": 0.275}, {"sequence": "TCCCACAAAGTTATGGAGA", "TetR repression strength": 0.214}, {"sequence": "TCCCGGTAAGTTTCTGAGA", "TetR repression strength": 0.231}, {"sequence": "TCCCCGCAAGTACACGAGA", "TetR repression strength": 0.292}, {"sequence": "TCCCTTTAAGTCCGTGAGA", "TetR repression strength": 0.518}, {"sequence": "TCCCTTCAAGTTGAAGAGA", "TetR repression strength": 0.13}, {"sequence": "TCCCACTGAGTAAGCGAGA", "TetR repression strength": 0.127}, {"sequence": "TCCCTCTGAGTTTGCGAGA", "TetR repression strength": 0.335}, {"sequence": "TCCCCACGAGTTTCTGAGA", "TetR repression strength": 0.492}, {"sequence": "TCCCCGATAGTTCGTGAGA", "TetR repression strength": 0.23}, {"sequence": "TCCCGGCTAGTGTTTGAGA", "TetR repression strength": 0.24}, {"sequence": "TCCCTTTTAGTGTGAGAGA", "TetR repression strength": 0.244}, {"sequence": "TCCCGTTGAGTGACTGAGA", "TetR repression strength": 0.105}, {"sequence": "TCCCCGGAAGTGGGTGAGA", "TetR repression strength": 0.244}, {"sequence": "TCCCGTGAAGTATATGAGA", "TetR repression strength": 0.356}, {"sequence": "TCCCCTGTAGTCTTCGAGA", "TetR repression strength": 0.277}, {"sequence": "TCCCGAATAGTTCAGGAGA", "TetR repression strength": 0.284}, {"sequence": "TCCCAGAGAGTCGGGGAGA", "TetR repression strength": 0.196}, {"sequence": "TCCCGTGCAGTTTGCGAGA", "TetR repression strength": 0.323}, {"sequence": "TCCCTCAAAGTTCTCGAGA", "TetR repression strength": 0.207}, {"sequence": "TCCCCTGGAGTTGCGGAGA", "TetR repression strength": 0.258}, {"sequence": "TCCCAGGAAGTTGTTGAGA", "TetR repression strength": 0.281}, {"sequence": "TCCCATGCAGTGTAGGAGA", "TetR repression strength": 0.173}, {"sequence": "TCCCGTTTAGTACCCGAGA", "TetR repression strength": 0.048}, {"sequence": "TCCCCTGGAGTAACAGAGA", "TetR repression strength": 0.587}, {"sequence": "TCCCAGGGAGTGGAAGAGA", "TetR repression strength": 0.235}, {"sequence": "TCCCGTTCAGTCGCGGAGA", "TetR repression strength": 0.188}, {"sequence": "TCCCAATCAGTTATCGAGA", "TetR repression strength": 0.468}, {"sequence": "TCCCACTCAGTGAGGGAGA", "TetR repression strength": 0.255}, {"sequence": "TCCCTTTTAGTTCGTGAGA", "TetR repression strength": 0.36}, {"sequence": "TCCCAGGTAGTGCGGGAGA", "TetR repression strength": 0.279}, {"sequence": "TCCCAGCTAGTGGACGAGA", "TetR repression strength": 0.295}, {"sequence": "TCCCGGCAAGTGGAGGAGA", "TetR repression strength": 0.066}, {"sequence": "TCCCATCCAGTTGGAGAGA", "TetR repression strength": 0.387}, {"sequence": "TCCCCATTAGTGTTTGAGA", "TetR repression strength": 0.207}, {"sequence": "TCCCACTAAGTCGTGGAGA", "TetR repression strength": 0.15}, {"sequence": "TCCCGCGTAGTTAATGAGA", "TetR repression strength": 0.421}, {"sequence": "TCCCTGTGAGTGTGTGAGA", "TetR repression strength": 0.265}, {"sequence": "TCCCTTCGAGTGATCGAGA", "TetR repression strength": 0.274}, {"sequence": "TCCCTAGCAGTCGGTGAGA", "TetR repression strength": 0.29}, {"sequence": "TCCCGGGTAGTTAAAGAGA", "TetR repression strength": 0.583}, {"sequence": "TCCCTAGCAGTATGAGAGA", "TetR repression strength": 0.258}, {"sequence": "TCCCTTGCAGTAATTGAGA", "TetR repression strength": 0.155}, {"sequence": "TCCCGGTCAGTGAGAGAGA", "TetR repression strength": 0.591}, {"sequence": "TCCCGTCGAGTGCACGAGA", "TetR repression strength": 0.0838}, {"sequence": "TCCCTGTCAGTTGCCGAGA", "TetR repression strength": 0.239}, {"sequence": "TCCCTAGAAGTTACTGAGA", "TetR repression strength": 0.18}, {"sequence": "TCCCGGTAAGTGTCAGAGA", "TetR repression strength": 0.573}, {"sequence": "TCCCGCTTAGTGTCAGAGA", "TetR repression strength": 0.634}, {"sequence": "TCCCAAATAGTGTGGGAGA", "TetR repression strength": 0.459}, {"sequence": "TCCCGGCCAGTCAGGGAGA", "TetR repression strength": 0.2}, {"sequence": "TCCCGCCAAGTGTTGGAGA", "TetR repression strength": 0.253}, {"sequence": "TCCCTGCGAGTGGGAGAGA", "TetR repression strength": 0.293}, {"sequence": "TCCCCGTCAGTAGATGAGA", "TetR repression strength": 0.216}, {"sequence": "TCCCATGGAGTACTTGAGA", "TetR repression strength": 0.233}, {"sequence": "TCCCTAATAGTAGCGGAGA", "TetR repression strength": 0.26}, {"sequence": "TCCCGCCGAGTGTGTGAGA", "TetR repression strength": 0.0483}, {"sequence": "TCCCCAACAGTCAGGGAGA", "TetR repression strength": 0.314}, {"sequence": "TCCCTTGCAGTGAAAGAGA", "TetR repression strength": 0.651}, {"sequence": "TCCCTTTAAGTAATCGAGA", "TetR repression strength": 0.252}, {"sequence": "TCCCGTGCAGTATAAGAGA", "TetR repression strength": 0.164}, {"sequence": "TCCCGTGAAGTAGCCGAGA", "TetR repression strength": 0.126}, {"sequence": "TCCCACGGAGTCGTGGAGA", "TetR repression strength": 0.182}, {"sequence": "TCCCCATAAGTAAAAGAGA", "TetR repression strength": 0.317}, {"sequence": "TCCCTAACAGTAACTGAGA", "TetR repression strength": 0.457}, {"sequence": "TCCCAGTTAGTGGCAGAGA", "TetR repression strength": 0.348}, {"sequence": "TCCCGGGCAGTAACTGAGA", "TetR repression strength": 0.239}, {"sequence": "TCCCGGTCAGTGGCAGAGA", "TetR repression strength": 0.395}, {"sequence": "TCCCTGTTAGTTAGGGAGA", "TetR repression strength": 0.571}, {"sequence": "TCCCTGCGAGTCGCCGAGA", "TetR repression strength": 0.317}, {"sequence": "TCCCCTATAGTGACGGAGA", "TetR repression strength": 0.159}, {"sequence": "TCCCGAGAAGTGCCTGAGA", "TetR repression strength": 0.178}, {"sequence": "TCCCTAGGAGTATTGGAGA", "TetR repression strength": 0.205}, {"sequence": "TCCCCGAAAGTAACGGAGA", "TetR repression strength": 0.301}, {"sequence": "TCCCTGCTAGTGGTTGAGA", "TetR repression strength": 0.00782}, {"sequence": "TCCCGGAGAGTGAAGGAGA", "TetR repression strength": 0.242}, {"sequence": "TCCCCTCTAGTGAGGGAGA", "TetR repression strength": 0.179}, {"sequence": "TCCCTGAGAGTCAGGGAGA", "TetR repression strength": 0.256}, {"sequence": "TCCCGCGGAGTCAAAGAGA", "TetR repression strength": 0.248}, {"sequence": "TCCCGGTCAGTGAACGAGA", "TetR repression strength": 0.572}]}]}
